In all, about 150,000 compounds went through this assay and about 540 (0.36%) showed an effect of 50% or more. This is one part of the list.

In this test the test system is Plasmodium falciparum. As to the kind of experiment: Primary screen in NF54 nanoGlo assay, in single point, at 2uM, 72h; a lower Z score goes with more inhibition. As to conditions: timepoint 72 hour. It counts as functional, Erythrocyte.
As a reminder, the % Inhibition is the relative decrease from the control value, in per cent. With `CCCNC(=O)Nc1ccnc([C@@H]2CCCN2C(=O)OC(C)(C)C)n1`, the “% Inhibition” value was -9% and the Z score is recorded as 1.64.
For `O=C([C@H](Cc1ccc(O)cc1)c1ccccc1)N1CCC2(CCO2)CC1`, in that order: -10% and 1.22.
As to `CCc1cc(N2CC3CC2(C)C3)ccn1`, the “% Inhibition” value is reported as -12% and the Z score is recorded as 1.64.
The like results for `O=C(CCN1CC[C@H](N2CCCC2=O)C1)Nc1ccccc1` were, in that order, -5% and 0.57.
The like results for `CCOC(=O)c1nc(C)n(C)c1NS(=O)(=O)Cc1ccc(F)c(Cl)c1` were, in that order, 8% and -1.
For `O=C(CN(CC(=O)NC1CC1)C1CCC(c2ccccc2)CC1)NC1CC1` (stereo unspecified), in that order: -6% and 0.84.
As for `C[C@@H](NCc1csc(C2CCCO2)n1)c1ccccc1` (stereo partly specified), the “% Inhibition” value is listed as 0% and the Z score is -0.01.
On to `O=C(c1cc(F)c(F)c(F)c1)N1CCC(n2c(-c3ccccc3)nc3ccc(F)cc32)CC1`, for which the “% Inhibition” value is on record as -1% and the Z score is listed as 0.17.
The like results for `CCC(C)OC(=O)CC1NCCNC1=O` (stereo unspecified) were, in that order, -5% and 0.59.
In the case of `CCCc1ccc(C(=O)N2CCC(n3cnc4ccccc43)CC2)cc1`, the “% Inhibition” value was -12% and the Z score is 1.77.
In the case of `COc1ccc(C(=O)C[n+]2cc(-c3ccc(OC)cc3)n3c2CCCC3)cc1`, the “% Inhibition” value was 65% and the Z score is recorded as -8.89.
The like results for `O=C(C[C@H]1CCCOC1)NCc1noc(C2CCCC2)n1` were, in that order, 1% and -0.14.
For `Cc1cnc(C(=O)N2CCC[C@H](c3c[nH]c4ncccc34)C2)c(C)c1`, in that order: -4% and 0.69.
On to `CCOC(=O)N1CCN(C(=O)CCc2cc3cc(OC)ccc3nc2O)CC1`, for which the “% Inhibition” value is listed as -13% and the Z score is 2.38.
For `C[C@H](OC(=O)c1cnc2[nH]nnc2c1)c1nc2cc(Cl)ccc2n1C`, in that order: -21% and 2.92.
As to `C1=C(CCn2ccnc2-c2ncc[nH]2)CCCC1`, the “% Inhibition” value is listed as -14% and the Z score is given as 1.9.
For `COc1cc(C(=O)NCC(=O)OCC(=O)N2CCN(c3ccccc3F)CC2)ccc1OC(F)F`, in that order: -12% and 1.08.
The like results for `O=C(NC1CCCCC1)[C@H]1CN(S(=O)(=O)c2ccccc2Cl)CC12CCOCC2` were, in that order, -12% and 2.23.
For `Cc1cc(CCNC(=O)Cc2cccs2)on1`, in that order: -1% and 0.15.
Consider `CN(C)S(=O)(=O)N(C)CCOC(=O)c1ccc(F)c(F)c1`, for which the “% Inhibition” value is reported as -10% and the Z score is 1.1.
As to `CC(C)C(=O)N1CCC(N[C@H]2CCCc3occc32)CC1`, the “% Inhibition” value is recorded as -2% and the Z score is recorded as 0.26.
On to `O=C(CCC1CCCC1)N1CCC[C@H](c2nc(CCOCC3CCOCC3)no2)C1`, for which the “% Inhibition” value was -14% and the Z score was 1.37.
Turning to `C[C@@H](CNc1ncccn1)Oc1ccc(F)cc1`, the “% Inhibition” value is -8% and the Z score came out at 1.27.
For `O=S(=O)(c1cccnc1C(F)(F)F)N1CCCC2(CCCCC2)C1`, in that order: 8% and -1.05.
Take `Cc1nc2c(s1)C(N(C)S(=O)(=O)N(C)CC(C)C#N)CCC2` (stereo unspecified): the “% Inhibition” value is recorded as -1% and the Z score worked out at 0.18.
The like results for `FC(F)Oc1ccc(-n2ccnc2-c2cc3n(n2)CCCNC3)cc1` were, in that order, -7% and 1.32.
For `O=C1N[C@H](c2ccc(Br)cc2F)CO1`, in that order: -8% and 1.55.
For `Cc1cn(CC(=O)N2CC[S+]([O-])CC2c2cnn(C)c2)nc1C(F)(F)F` (stereo unspecified), in that order: 5% and -0.52.
For the molecule `COc1ccc(Oc2c(CN(CC(C)C)C(=O)c3ccccc3)c(-c3ccccc3)nn2C)cc1`, the “% Inhibition” value is on record as -4% and the Z score came out at 0.47.
For `O=C(Nc1nc(C(=O)NCCN2CCOCC2)cs1)c1cccc(F)c1`, in that order: -15% and 1.44.
Turning to `Cc1cccc(Cn2c(CNS(=O)(=O)c3ccc(Cl)cc3)nc3cccnc32)c1`, the “% Inhibition” value is listed as -16% and the Z score was determined as 2.06.
Consider `O=c1[nH]c(=O)n(S(=O)(=O)c2ccccc2)cc1F`, for which the “% Inhibition” value is listed as 90% and the Z score is listed as -12.13.
Consider `O=C(c1ccon1)N1CC[C@H]2[C@H](CCC(=O)N2CCc2ccccn2)C1`, for which the “% Inhibition” value is on record as 3% and the Z score was -0.57.
For `COc1cc(OC)c([C@@H](CC(N)=O)c2c(Cc3ccc4c(c3)CCO4)[nH][nH]c2=O)cc1OC`, in that order: 0% and 0.06.
In the case of `CC(NCC1OCCO1)C1CCCO1` (stereo unspecified), the “% Inhibition” value was -15% and the Z score amounted to 1.9.
For `O=C(O)c1sccc1CN1CCC[C@H]1c1nccc(C(F)(F)F)n1`, the “% Inhibition” value is listed as -6% and the Z score was 1.17.
The like results for `COC(=O)c1cc2c(cc1NC(=O)Cc1noc3ccccc13)OCO2` were, in that order, -11% and 2.08.
As for `N#Cc1cc(C(=O)N2CCC[C@H](c3cccc(C(F)(F)F)c3)C2)c[nH]1`, the “% Inhibition” value is -10% and the Z score came out at 1.26.
The like results for `O=C(C1CC2CCC1C2)N1CCN(c2ccccn2)CC1` (stereo unspecified) were, in that order, 4% and -0.53.
For `CC1(C(=O)O)NC(c2cc(Cl)ccc2O)C2C(=O)N(Cc3ccccc3)C(=O)C21` (stereo unspecified), in that order: -11% and 1.51.
Consider `O=C(N[C@@H]1CC=C(c2ccc(F)cc2)CC1)c1nc2n(n1)CCCN2`, for which the “% Inhibition” value was found to be 36% and the Z score was -1.32.
For `Cc1ccccc1S(=O)(=O)NCCn1c(-c2ccncc2)nc2ccccc21`, in that order: 5% and -0.95.
For `CC(C)[C@H](NC(=O)COC1CCCCC1)c1ccccc1NC(=O)COC1CCCCC1`, in that order: 4% and -0.51.

(Values after ChEMBL document CHEMBL4888484, “Replenishing the malaria drug discovery pipeline: Screening and hit evaluation of the MMV Hit Generation Library 1 (HGL1) against asexual blood stage Plasmodium falciparum ,using a nano luciferase reporter read-out” (2022).)
